Test results from PubChem BioAssay AID686979 (National Center for Advancing Translational Sciences (NCATS), 2013).
Where “and” joins values, the source holds several entries; their conditions need not be identical. Equal values may be shown once. In all, about 420,000 compounds went through this assay and about 50,000 (12%) were called active. The inconclusive results got no clear call from the source; some entries with a clear call stand among them for comparison. Calls follow the shape of the dose curve; as a rule, active = well fitted inhibition curve with a large enough effect; inconclusive = small, poorly fitted or top-dose-only effect; inactive = flat fitted curve, though single readings scatter. Potencies of inconclusive entries are left out as doubtful fits.
Potency is read from the fitted curve at half-maximal effect; tags tell the direction and shape of the fitted curve.

Assay: qHTS for Inhibitors of human tyrosyl-DNA phosphodiesterase 1 (TDP1): qHTS in cells in presence of CPT; also: nearly all actives have a fitted effect of over 55% in size
Details: chicken DT40 Tdp1-/-;hTDP1 cells + 20 nM CPT, ATP luminescence, 48 h; series mostly up to 46.2 µM
Method in brief: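 Cell growth measured by CellTiter-Glo luminescence after a minimum 48 h, 37 C compound exposure with 20 nM CPT in Tdp1-knockout DT40 cells stably expressing hTDP1, seeded 400/well; qHTS titration format.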
In the case of `O=C(CN1C(=O)NC2(CCCC2)C1=O)OCCOc1cccc(Br)c1`, the Potency is reported as inconclusive [inhibitor, single point]. With `CC(=O)Nc1ccc(NC(=O)c2cnn(-c3ccccc3)c2C2CCN(C(=O)OC(C)(C)C)CC2)cc1` the Potency was “inactive”. For `Cc1ccc(C)c(N2CCN(C(=O)Cn3c(=O)[nH]c4ccsc4c3=O)CC2)c1`, the Potency was “inactive”. For `O=S(=O)(Nc1cccc(F)c1)c1ccc2[nH]c3c(c2c1)CCCCC3`, the Potency was active: 20.6 µM. For `COc1cccc(C(=O)Oc2c(CN3CCOCC3)cc(Cl)c3cccnc23)c1`, the Potency was active: 0.731 µM. In the case of `CC(C)(C)n1nnnc1C(c1ccc(F)cc1)N1CCN(Cc2ccc3c(c2)OCO3)CC1` (stereo not given), the Potency is reported as “inactive”. With `Cc1ccc(C2=NN(C(=O)CCC(=O)O)C(c3cccc([N+](=O)[O-])c3)C2)cc1` (stereo not given) the Potency was “inactive”. In the case of `Cc1cccc(NC(=O)CN(C)S(=O)(=O)c2ccc(Cl)cc2)n1`, the Potency is reported as “inactive”. With `COc1ccc(C(=O)NCCCn2ccnc2)cc1` the Potency was “inactive”. With `CSc1ncccc1C(=O)NCCc1ccccc1` the Potency was “inactive”. With `Cc1ccc(-n2c(SCC(=O)NCCC3=CCCCC3)nc3n[nH]c(C)c3c2=N)cc1Cl` the Potency was active: 11.6 µM. For `CCC(C(=O)NCc1cccc(Br)c1)n1nc(C)c2c(C)n(-c3ccccc3)nc2c1=O` (stereo not given), the Potency was active: 23.1 µM. For `Clc1nnc(Cl)c2c1ncn2Cc1ccccc1`, the Potency was “inactive”. With `CCCCC(=O)OCC(=O)N1N=C(c2c[nH]c3ccccc23)C(O)C1c1ccc(OC)cc1` (stereo not given) the Potency was inconclusive [inhibitor, single point]. With `Cc1c(C#N)c(N=CN(C)C)c(C(=O)c2ccc(Br)cc2)n1-c1ccccc1` the Potency was “inactive”. With `COc1cc(CNc2ccc(O)cc2)cc(Br)c1OCc1ccccc1F` the Potency was active: 16.4 µM. For `COCCCn1c(=O)c2ccccc2n(Cc2cc(C(=O)OC)ccc2OC)c1=O`, the Potency was “inactive”. In the case of `CCC(=O)N1CCc2cc(CNC(=O)c3ccc(C#N)cc3)ccc21`, the Potency is reported as inconclusive [inhibitor, single point]. In the case of `COc1cc(OC)cc(C(=O)Nc2ccc3c(c2)OCCO3)c1`, the Potency is reported as inconclusive [inhibitor, single point]. In the case of `O=C(COc1ccccc1C(=O)Nc1ccccc1)Nc1cccc(Cl)c1`, the Potency is reported as active: 17.8 µM. For `COc1ccc([C@H]2CC(=O)C=C(c3ccc(Cl)c(C(F)(F)F)c3)C2)cc1OC`, the Potency was inconclusive [inhibitor, single point]. For `Nc1nc(SCC(=O)NCCOCCO)nc2sc3c(c12)CCCC3`, the Potency was “inactive”. With `CCOc1ccccc1Nc1nnc(-c2cc3cc(Cl)ccc3oc2=O)s1` the Potency was active: 2.31 µM. With `S=c1[nH]nc(-c2n[nH]c3c2CCC3)n1/N=C/C=C/c1ccco1` the Potency was “inactive”. For `Cn1c(=O)c2c(-c3ccc(C(C)(C)C)cc3)n(CC3CCCO3)cc2n(C)c1=O` (stereo not given), the Potency was inconclusive [inhibitor, single point]. With `Cc1cccc(OCC(=O)Nc2cc(S(=O)(=O)N3CCOCC3)ccc2N2CCCC2)c1C` the Potency was inconclusive [inhibitor, single point]. For `CCc1cccc(CC)c1NC(=S)NC(C)c1ccccc1` (stereo not given), the Potency was “inactive”. With `CN(CC(=O)Nc1cccc(F)c1)C(=O)c1ccc(N2CCCC2)c([N+](=O)[O-])c1` the Potency was active: 16.4 µM. With `CCOC(=O)c1c[nH]c2c([N+](=O)[O-])cc(OC)cc2c1=O` the Potency was active: 7.31 µM. For `CCCN(CCC)CCCNC(=O)c1nn(-c2cccc(OC)c2)c(=O)c2ccccc12`, the Potency was inconclusive [inhibitor, single point]. With `O=C(CSc1nnc(Cc2cccs2)n1C1CC1)NC1CCS(=O)(=O)C1` (stereo not given) the Potency was “inactive”. For `Cc1ccccc1Nc1c(-c2ccccc2)nc2ncccn12`, the Potency was inconclusive [inhibitor, single point]. In the case of `CCCn1nc(NC(=O)c2cccc(Cl)c2)c2cc3cccc(C)c3nc21`, the Potency is reported as inconclusive [inhibitor, single point]. In the case of `COc1cc(-c2noc(C)c2C#Cc2ccc(N)cc2)cc(OC)c1OC`, the Potency is reported as active: 631 nM and active: 820 nM. In the case of `COc1ccc(-c2nc3sc(CCNC(=O)C(=O)Nc4ccc(C)c(F)c4)c(C)n3n2)cc1`, the Potency is reported as “inactive”. For `NC(=O)c1cc([N+](=O)[O-])c(Cl)cc1NCc1cccnc1`, the Potency was inconclusive [inhibitor, single point]. In the case of `Nc1ccc(N=Nc2ccc(O)cc2)c(N)n1`, the Potency is reported as active: 20.6 µM. With `Cc1ccc(S(=O)(=O)NC(=O)C2(C)CCN2C(=O)C2(c3ccc(Cl)cc3)CC2)cc1` (stereo not given) the Potency was “inactive”. With `O=C(Nc1nc(COc2ccccc2)cs1)C12CC3CC(CC(C3)C1)C2` the Potency was active: 22.4 µM. In the case of `c1csc(-c2ccc(N3CCOCC3)nn2)c1`, the Potency is reported as inconclusive [inhibitor, single point]. With `Cc1cccc(CNc2ccnc(-c3cccc(NS(C)(=O)=O)c3)n2)c1` the Potency was inconclusive [inhibitor, single point]. With `COc1ccc(C2N(c3ccccc3)C(=S)N3CCCN23)cc1` (stereo not given) the Potency was inconclusive [inhibitor, single point]. In the case of `CCOc1ccc(NC(=O)CSC2=Nc3ccccc3C3=NC(Cc4ccccc4)C(=O)N23)cc1` (stereo not given), the Potency is reported as inconclusive [inhibitor, single point]. For `Cn1nc(C#N)c(=O)[nH]c1=O`, the Potency was “inactive”. In the case of `Cc1ccc(C(=O)N2CCN(c3ccccc3Cl)CC2)cc1[N+](=O)[O-]`, the Potency is reported as active: 29.1 µM. In the case of `COc1ccc(OC)c(N2C(=O)CC(Cc3ccc(Cl)cc3)C2=O)c1` (stereo not given), the Potency is reported as “inactive”. With `O=C(C1CCN(S(=O)(=O)c2cccc3nsnc23)CC1)N1CCN(c2ccccc2F)CC1` the Potency was inconclusive [inhibitor, single point]. With `COC(=O)[C@H]1[C@@H]2C[C@@H]3c4[nH]c5ccccc5c4CCN3C[C@H]2CC[C@H]1O` the Potency was “inactive”. For `Cc1ccc(NC(=O)Cn2c(-c3nonc3N)nc3ccccc32)cc1C`, the Potency was inconclusive [inhibitor, single point]. For `O=C(Nc1ccc(Oc2cccnc2)cc1)c1ccccc1F`, the Potency was inconclusive [inhibitor, single point].
